# Data from publication PMC4081100.
# The list shows a part of the results, in another mix than the full data. For part of these data: At the low end of the ranking, values are background and their order means little. Some of the results follow. For part of these data: The source does not settle which construct or isoform was used.
# Tests used:
# Test in all cases: universal protein binding microarray (PBM)
# Conditions in all cases: transcription factors of Arabidopsis thaliana; high values mean tight binding; most listed sequences are background and not binding sites; double strand, one strand shown
# GST-ANAC092(1-176) = target: T1, GST-ANAC092(1-176) (UniProt Q9FKA0)
# T1 sequence: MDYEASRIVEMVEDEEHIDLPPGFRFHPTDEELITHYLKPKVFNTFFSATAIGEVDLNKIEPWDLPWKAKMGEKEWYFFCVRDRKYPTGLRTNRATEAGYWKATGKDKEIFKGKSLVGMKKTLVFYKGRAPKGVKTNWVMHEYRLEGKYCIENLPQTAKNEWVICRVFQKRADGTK
# GST-NTL6(1-168) = GST-NTL6(1-168) (UniProt Q9SCK6)
# GST-ANAC019 NAC domain = target: T2, GST-ANAC019 NAC domain (UniProt Q9C932)
# T2 sequence: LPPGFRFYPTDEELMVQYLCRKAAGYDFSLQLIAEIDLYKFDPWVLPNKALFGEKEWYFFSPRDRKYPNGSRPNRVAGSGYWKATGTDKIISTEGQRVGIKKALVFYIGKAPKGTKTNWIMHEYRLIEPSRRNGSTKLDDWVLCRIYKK
# GST-ANAC055(1-171) = target: T3, GST-ANAC055(1-171) (UniProt Q9LDY8)
# T3 sequence: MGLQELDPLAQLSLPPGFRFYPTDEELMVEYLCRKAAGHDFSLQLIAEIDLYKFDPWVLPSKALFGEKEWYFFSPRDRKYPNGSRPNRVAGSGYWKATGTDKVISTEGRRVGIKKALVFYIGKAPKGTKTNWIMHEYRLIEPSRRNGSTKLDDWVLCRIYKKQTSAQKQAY
# GST-ATAF1 NAC domain = target: T4, GST-ATAF1 NAC domain (UniProt Q39013)
# T4 sequence: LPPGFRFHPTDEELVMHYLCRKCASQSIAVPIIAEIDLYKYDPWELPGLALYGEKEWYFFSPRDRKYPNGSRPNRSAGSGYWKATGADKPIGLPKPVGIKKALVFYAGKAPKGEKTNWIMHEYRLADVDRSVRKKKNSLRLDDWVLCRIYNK
# GST-NAP(1-166) = target: T5, GST-NAP(1-166) (UniProt O49255)
# T5 sequence: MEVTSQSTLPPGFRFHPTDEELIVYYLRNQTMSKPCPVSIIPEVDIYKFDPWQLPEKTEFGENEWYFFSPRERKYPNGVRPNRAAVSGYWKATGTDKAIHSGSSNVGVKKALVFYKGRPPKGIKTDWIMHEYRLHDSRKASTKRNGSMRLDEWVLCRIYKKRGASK
# GST-NST2(1-184) = target: T6, GST-NST2(1-184) (UniProt Q9M274)
# T6 sequence: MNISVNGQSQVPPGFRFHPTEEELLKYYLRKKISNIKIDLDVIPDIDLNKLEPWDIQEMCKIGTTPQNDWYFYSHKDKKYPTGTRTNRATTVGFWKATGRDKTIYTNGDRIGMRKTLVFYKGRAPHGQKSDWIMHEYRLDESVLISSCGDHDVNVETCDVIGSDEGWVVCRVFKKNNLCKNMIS
# GST-NTL8 NAC domain = target: T7, GST-NTL8 NAC domain (UniProt Q9XIN7)
# T7 sequence: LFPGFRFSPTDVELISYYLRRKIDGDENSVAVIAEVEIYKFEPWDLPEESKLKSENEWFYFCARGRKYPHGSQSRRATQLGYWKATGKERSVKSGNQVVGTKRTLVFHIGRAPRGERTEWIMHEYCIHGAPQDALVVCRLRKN
# GST-VND3 NAC domain = target: T8, GST-VND3 NAC domain (UniProt Q9FH59)
# T8 sequence: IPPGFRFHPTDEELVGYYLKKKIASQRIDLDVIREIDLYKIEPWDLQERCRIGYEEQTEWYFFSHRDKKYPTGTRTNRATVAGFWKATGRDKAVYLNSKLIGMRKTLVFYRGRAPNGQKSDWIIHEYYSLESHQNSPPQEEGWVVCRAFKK
# GST-VND7 NAC domain = target: T9, GST-VND7 NAC domain (UniProt Q9C8W9)
# T9 sequence: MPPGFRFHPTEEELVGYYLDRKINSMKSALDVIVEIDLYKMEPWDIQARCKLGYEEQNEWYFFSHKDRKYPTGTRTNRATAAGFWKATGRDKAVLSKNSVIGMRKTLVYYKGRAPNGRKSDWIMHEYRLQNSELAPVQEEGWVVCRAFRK
# [1] = target: T10, GST-VOZ2 (Arabidopsis thaliana) (UniProt Q9SLB9)
# T10 sequence: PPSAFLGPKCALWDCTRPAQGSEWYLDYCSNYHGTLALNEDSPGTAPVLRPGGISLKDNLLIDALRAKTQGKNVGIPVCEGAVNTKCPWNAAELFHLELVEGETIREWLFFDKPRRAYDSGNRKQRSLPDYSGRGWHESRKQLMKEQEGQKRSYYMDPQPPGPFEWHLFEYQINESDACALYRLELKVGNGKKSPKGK
# GST-WRKY1(266-371) = GST-WRKY1(266-371) (UniProt Q9SI37)
# GST-SND1(1-203) = target: T11, GST-SND1(1-203) (UniProt Q9LPI7)
# T11 sequence: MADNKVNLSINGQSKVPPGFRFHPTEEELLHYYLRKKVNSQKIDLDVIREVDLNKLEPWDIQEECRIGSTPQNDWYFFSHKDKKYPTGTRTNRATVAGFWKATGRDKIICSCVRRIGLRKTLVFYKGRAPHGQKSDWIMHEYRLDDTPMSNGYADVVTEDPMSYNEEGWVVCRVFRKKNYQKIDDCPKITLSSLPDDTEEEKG
# [2] = target: T12, GST-ANAC092(1-285) full length (UniProt Q9FKA0)
# T12 sequence: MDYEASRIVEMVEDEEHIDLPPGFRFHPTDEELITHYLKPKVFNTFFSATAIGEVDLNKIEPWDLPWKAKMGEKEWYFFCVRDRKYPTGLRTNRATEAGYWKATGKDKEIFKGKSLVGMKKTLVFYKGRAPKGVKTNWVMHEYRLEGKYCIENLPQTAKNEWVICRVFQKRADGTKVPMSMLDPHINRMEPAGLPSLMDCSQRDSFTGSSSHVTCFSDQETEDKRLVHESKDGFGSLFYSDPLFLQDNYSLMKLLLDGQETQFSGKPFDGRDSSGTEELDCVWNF
Sequence,binding signal (GST-ANAC092(1-176)),binding signal (GST-NTL6(1-168)),binding signal (GST-ANAC019 NAC domain),binding signal (GST-ANAC055(1-171)),binding signal (GST-ATAF1 NAC domain),binding signal (GST-NAP(1-166)),binding signal (GST-NST2(1-184)),binding signal (GST-NTL8 NAC domain),binding signal (GST-VND3 NAC domain),binding signal (GST-VND7 NAC domain),binding signal [1],binding signal (GST-WRKY1(266-371)),binding signal (GST-SND1(1-203)),binding signal [2]
AGCGTTGA,0.0263 E-score,0.0737 E-score,-0.13 E-score,0.00861 E-score,-0.0398 E-score,0.0398 E-score,0.0637 E-score,-0.0995 E-score,-0.101 E-score,-0.0167 E-score,0.0234 E-score,0.401 E-score,–,–
AATAGTCA,-0.0539 E-score,0.0108 E-score,-0.0594 E-score,–,–,0.0269 E-score,–,-0.0322 E-score,–,–,0.0653 E-score,–,-0.0528 E-score,–
GTCAATCA,0.00213 E-score,-0.00805 E-score,0.0668 E-score,–,0.048 E-score,-0.136 E-score,–,–,–,–,0.16 E-score,–,0.0451 E-score,–
AGTCTACG,-0.0417 E-score,-0.16 E-score,0.0568 E-score,-0.11 E-score,0.0473 E-score,-0.0347 E-score,0.0274 E-score,-0.113 E-score,-0.11 E-score,-0.0261 E-score,-0.106 E-score,0.401 E-score,–,0.0408 E-score
GTAGTCAA,-0.0248 E-score,0.0675 E-score,0.0334 E-score,–,–,0.0663 E-score,–,0.00194 E-score,0.134 E-score,-0.0478 E-score,-0.0562 E-score,0.478 E-score,–,0.000745 E-score
ACGCTACC,0.455 E-score,-0.0179 E-score,0.118 E-score,0.0295 E-score,–,0.0969 E-score,–,-0.0173 E-score,0.0872 E-score,0.181 E-score,0.188 E-score,-0.0865 E-score,–,–
TGACCGAA,-0.0964 E-score,-0.0631 E-score,-0.03 E-score,-0.0598 E-score,-0.0181 E-score,0.0367 E-score,0.00371 E-score,-0.105 E-score,-0.019 E-score,-0.0822 E-score,0.0418 E-score,0.459 E-score,–,-0.0386 E-score
CACGTCAG,–,-0.173 E-score,–,0.19 E-score,–,–,0.0323 E-score,-0.0986 E-score,–,–,-0.112 E-score,–,0.0864 E-score,–
AAGTCAAA,–,0.135 E-score,0.084 E-score,0.0354 E-score,0.16 E-score,–,–,-0.00307 E-score,–,–,0.103 E-score,–,0.0314 E-score,-0.0494 E-score
TTACTCAA,–,–,–,–,–,–,–,0.0629 E-score,–,–,0.0666 E-score,-0.0441 E-score,0.445 E-score,–
ACGGCAGT,0.207 E-score,0.00944 E-score,0.418 E-score,0.311 E-score,0.212 E-score,–,0.138 E-score,-0.0802 E-score,–,–,-0.00946 E-score,–,0.0425 E-score,–
ATTTCCTC,-0.0162 E-score,0.148 E-score,-0.174 E-score,0.00859 E-score,0.0269 E-score,0.0401 E-score,0.115 E-score,–,0.00513 E-score,-0.0525 E-score,0.0711 E-score,-0.112 E-score,–,-0.0291 E-score
GGGGGTAA,-0.155 E-score,0.147 E-score,-0.117 E-score,-0.272 E-score,-0.167 E-score,-0.0656 E-score,-0.101 E-score,0.403 E-score,-0.213 E-score,-0.196 E-score,0.155 E-score,-0.29 E-score,–,–
ACACGATA,–,–,–,0.261 E-score,–,0.183 E-score,–,0.0171 E-score,–,–,0.218 E-score,-0.194 E-score,0.266 E-score,–
ACTGACCT,-0.0142 E-score,-0.0219 E-score,-0.00789 E-score,-0.0359 E-score,-0.0959 E-score,-0.0607 E-score,0.00237 E-score,–,-0.0318 E-score,-0.0778 E-score,-0.0195 E-score,0.407 E-score,–,-0.0898 E-score
GTTGGTCA,0.0266 E-score,-0.0165 E-score,0.0392 E-score,0.182 E-score,–,0.117 E-score,-0.0594 E-score,0.0397 E-score,–,–,0.0524 E-score,–,-0.0996 E-score,0.0411 E-score
CTTTTGAC,0.158 E-score,–,0.014 E-score,–,–,0.0483 E-score,0.00386 E-score,-0.0727 E-score,–,–,0.109 E-score,–,0.0461 E-score,–
ACTAGTCA,–,0.0329 E-score,0.0985 E-score,0.134 E-score,0.0655 E-score,–,0.034 E-score,0.128 E-score,–,–,-0.0575 E-score,–,-0.00161 E-score,–
TAGAGTAA,–,0.0406 E-score,-0.0715 E-score,0.0921 E-score,–,-0.054 E-score,–,0.065 E-score,–,–,-0.0401 E-score,–,0.401 E-score,0.263 E-score
ACTTTCCT,0.00267 E-score,0.292 E-score,0.0411 E-score,0.171 E-score,–,0.0235 E-score,0.144 E-score,0.4 E-score,0.018 E-score,0.121 E-score,-0.0114 E-score,0.171 E-score,–,0.0813 E-score
AAAGGTAA,0.0477 E-score,0.262 E-score,-0.0174 E-score,–,0.0117 E-score,–,–,–,0.035 E-score,-0.0391 E-score,-0.0846 E-score,-0.0475 E-score,–,0.0772 E-score
ACCTTACC,0.00609 E-score,0.306 E-score,-0.0167 E-score,-0.0385 E-score,–,-0.131 E-score,-0.0579 E-score,0.417 E-score,-0.0195 E-score,0.0483 E-score,0.119 E-score,-0.0454 E-score,–,0.111 E-score
AGACGTGA,–,0.0777 E-score,0.425 E-score,–,–,0.223 E-score,0.157 E-score,0.116 E-score,–,–,0.0434 E-score,–,0.25 E-score,0.272 E-score
TCAGTCAA,-0.0566 E-score,-0.0365 E-score,-0.0194 E-score,-0.0534 E-score,–,-0.0898 E-score,-0.00316 E-score,0.0655 E-score,0.0235 E-score,-0.0285 E-score,-0.023 E-score,0.473 E-score,–,0.0254 E-score
GACGTAAC,–,–,0.355 E-score,–,–,–,0.24 E-score,–,–,–,-0.00929 E-score,–,0.392 E-score,–
ATACGTAA,–,–,–,–,0.407 E-score,0.461 E-score,–,0.0445 E-score,–,–,0.0642 E-score,0.0363 E-score,0.393 E-score,–
GCGTAAAA,–,–,–,–,–,–,–,–,0.197 E-score,0.174 E-score,0.255 E-score,0.0322 E-score,–,–
CTACGCGA,0.0195 E-score,-0.0518 E-score,-0.0262 E-score,-0.117 E-score,-0.00467 E-score,-0.0157 E-score,–,0.0132 E-score,-0.0903 E-score,0.0441 E-score,0.0326 E-score,0.0113 E-score,–,–
